# Laboratory results published in the supplement of paper PMC8728848.
# The list shows a part of the results.
# B1: SAG3 (Toxoplasma gondii), Q9BJ39 (protein)
# chain: MQLWRRRAAGPASLGRQSLPLGCFFAAFGLCVLSAILGTGERGLFVAAGNSRRKITYFGTLTQKAPNWYRCSSTRAKEEVVGHVTLNKEHPDMTIECVDDGLGGEFLPLEGARSSYPRVCHIDAKDQDDCERNRGFLTDYIPGAKQYWYKIEKVEQNGEQSVLYKFTVPWILLPPAKQRYKVGCRYPNHEYCFVEVTVEPTPPMVEGKRVTCGYSESGPVNLEVDLSKNANFIEIRCGEQHHPQPSTYTLQYCSGDSVDPQKCSPQSLTNIFYDYSSSWWKGKLNGPDGATLTIPPGGFPEEDKSFLVGCSLTVDGPPFCNVKVRVAGNPRKWERGGGGHPGSGGLQPGTDGETQAGTGSSAGASSRMASVALAFLLGLLVHVAA
# Tests used:
# Test in all cases: glycan array binding signal (z-score within array); higher = stronger binding
# Conditions in all cases: glycan notation: IUPAC condensed, linker removed
# [1] = molecular target: Gal(b1-4)GlcNAc(b1-6)[Gal(b1-3)]GalNAc
# How it was run: (§1)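 Columns mapping to the same glycan were averaged after glycan names were converted to IUPAC-condensed notation. The data come from 3228 arrays in the Consortium for Functional Glycomics database, limited to those with an available protein sequence. Binding is reported as a within-array Z-score averaged across arrays of one protein sequence and across linkers.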
# Gal3S(b1-3)GalNAc = molecular target: Gal3S(b1-3)GalNAc
# How it was run: as §1
# Gal3S(b1-3)GlcNAc = molecular target: Gal3S(b1-3)GlcNAc
# How it was run: as §1
# [2] = molecular target: Gal3S(b1-3)[Fuc(a1-4)]GlcNAc
# How it was run: as §1
# Gal3S(b1-4)Glc = molecular target: Gal3S(b1-4)Glc
# How it was run: as §1
# Gal3S(b1-4)Glc6S = molecular target: Gal3S(b1-4)Glc6S
# How it was run: as §1
# Gal3S(b1-4)GlcNAc = molecular target: Gal3S(b1-4)GlcNAc
# How it was run: as §1
# Gal3S(b1-4)GlcNAc6S = molecular target: Gal3S(b1-4)GlcNAc6S
# How it was run: as §1
# [3] = molecular target: Gal3S(b1-4)[Fuc(a1-3)]Glc
# How it was run: as §1
# [4] = molecular target: Gal3S(b1-4)[Fuc(a1-3)]Glc6S
# How it was run: as §1
# Gal3S4S(b1-4)GlcNAc = molecular target: Gal3S4S(b1-4)GlcNAc
# How it was run: as §1
# Gal3S6S(b1-4)GlcNAc = molecular target: Gal3S6S(b1-4)GlcNAc
# How it was run: as §1
# Gal3S6S(b1-4)GlcNAc6S = molecular target: Gal3S6S(b1-4)GlcNAc6S
# How it was run: as §1
# Gal4S(b1-4)GlcNAc = molecular target: Gal4S(b1-4)GlcNAc
# How it was run: as §1
# Gal4S6S(b1-4)GlcNAc = molecular target: Gal4S6S(b1-4)GlcNAc
# How it was run: as §1
# Gal6S(b1-4)Glc = molecular target: Gal6S(b1-4)Glc
# How it was run: as §1
# Gal6S(b1-4)Glc6S = molecular target: Gal6S(b1-4)Glc6S
# How it was run: as §1
# Gal6S(b1-4)GlcNAc = molecular target: Gal6S(b1-4)GlcNAc
# How it was run: as §1
# Gal6S(b1-4)GlcNAc6S = molecular target: Gal6S(b1-4)GlcNAc6S
# How it was run: as §1
# GalNAc(a1-3)Gal = molecular target: GalNAc(a1-3)Gal
# How it was run: as §1
# GalNAc(a1-3)GalNAc = molecular target: GalNAc(a1-3)GalNAc
# How it was run: as §1
# [5] = molecular target: GalNAc(a1-3)GalNAc(a1-3)Gal(a1-4)Gal(b1-4)GlcNAc
# How it was run: as §1
# GalNAc(b1-3)Gal = molecular target: GalNAc(b1-3)Gal
# How it was run: as §1
# [6] = molecular target: GalNAc(b1-3)Gal(a1-4)Gal(b1-4)GlcNAc
# How it was run: as §1
# [7] = molecular target: GalNAc(b1-3)Gal(a1-4)Gal(b1-4)GlcNAc(b1-3)Gal(b1-4)Glc
# How it was run: as §1
# [8] = molecular target: GalNAc(b1-3)Gal(a1-6)Gal(b1-4)Glc
# How it was run: as §1
# GalNAc(b1-3)GalNAc = molecular target: GalNAc(b1-3)GalNAc
# How it was run: as §1
# GalNAc(b1-4)GlcNAc = molecular target: GalNAc(b1-4)GlcNAc
# How it was run: as §1
# [9] = molecular target: GalNAc(b1-4)GlcNAc(b1-2)Man(a1-3)[GalNAc(b1-4)GlcNAc(b1-2)Man(a1-6)]Man(b1-4)GlcNAc(b1-4)GlcNAc
# How it was run: as §1
# Glc(a1-4)Glc = molecular target: Glc(a1-4)Glc
# How it was run: as §1
# Glc(a1-6)Glc(a1-6)Glc = molecular target: Glc(a1-6)Glc(a1-6)Glc
# How it was run: as §1
# Glc(b1-4)Glc = molecular target: Glc(b1-4)Glc
# How it was run: as §1
# Glc(b1-6)Glc = molecular target: Glc(b1-6)Glc
# How it was run: as §1
# GlcA(b1-3)Gal = molecular target: GlcA(b1-3)Gal
# How it was run: as §1
# GlcA(b1-3)GlcNAc = molecular target: GlcA(b1-3)GlcNAc
# How it was run: as §1
# GlcA(b1-6)Gal = molecular target: GlcA(b1-6)Gal
# How it was run: as §1
# [10] = molecular target: GlcNAc(a1-3)Gal(b1-4)GlcNAc
# How it was run: as §1
# [11] = molecular target: GlcNAc(a1-4)Gal(b1-3)GlcNAc
# How it was run: as §1
binder,measurement,setting,value
B1,glycan array binding signal (z-score),[1],-0.245
same,glycan array binding signal (z-score),Gal3S(b1-3)GalNAc,0.032
same,glycan array binding signal (z-score),Gal3S(b1-3)GlcNAc,-0.181
same,glycan array binding signal (z-score),[2],-0.458
same,glycan array binding signal (z-score),Gal3S(b1-4)Glc,-0.446
same,glycan array binding signal (z-score),Gal3S(b1-4)Glc6S,-0.122
same,glycan array binding signal (z-score),Gal3S(b1-4)GlcNAc,0.012
same,glycan array binding signal (z-score),Gal3S(b1-4)GlcNAc6S,-0.22
same,glycan array binding signal (z-score),[3],-0.443
same,glycan array binding signal (z-score),[4],0.951
same,glycan array binding signal (z-score),Gal3S4S(b1-4)GlcNAc,-0.335
same,glycan array binding signal (z-score),Gal3S6S(b1-4)GlcNAc,-0.055
same,glycan array binding signal (z-score),Gal3S6S(b1-4)GlcNAc6S,-0.18
same,glycan array binding signal (z-score),Gal4S(b1-4)GlcNAc,0.111
same,glycan array binding signal (z-score),Gal4S6S(b1-4)GlcNAc,0.388
same,glycan array binding signal (z-score),Gal6S(b1-4)Glc,-0.036
same,glycan array binding signal (z-score),Gal6S(b1-4)Glc6S,0.161
same,glycan array binding signal (z-score),Gal6S(b1-4)GlcNAc,-0.021
same,glycan array binding signal (z-score),Gal6S(b1-4)GlcNAc6S,-0.075
same,glycan array binding signal (z-score),GalNAc(a1-3)Gal,-0.389
same,glycan array binding signal (z-score),GalNAc(a1-3)GalNAc,-0.218
same,glycan array binding signal (z-score),[5],0.301
same,glycan array binding signal (z-score),GalNAc(b1-3)Gal,0.003
same,glycan array binding signal (z-score),[6],-0.317
same,glycan array binding signal (z-score),[7],0.029
same,glycan array binding signal (z-score),[8],-0.162
same,glycan array binding signal (z-score),GalNAc(b1-3)GalNAc,-0.03
same,glycan array binding signal (z-score),GalNAc(b1-4)GlcNAc,-0.437
same,glycan array binding signal (z-score),[9],0.581
same,glycan array binding signal (z-score),Glc(a1-4)Glc,-0.209
same,glycan array binding signal (z-score),Glc(a1-6)Glc(a1-6)Glc,-0.156
same,glycan array binding signal (z-score),Glc(b1-4)Glc,0.326
same,glycan array binding signal (z-score),Glc(b1-6)Glc,-0.281
same,glycan array binding signal (z-score),GlcA(b1-3)Gal,-0.281
same,glycan array binding signal (z-score),GlcA(b1-3)GlcNAc,-0.372
same,glycan array binding signal (z-score),GlcA(b1-6)Gal,-0.241
same,glycan array binding signal (z-score),[10],0.097
same,glycan array binding signal (z-score),[11],-0.321
